{"sequences": {"note": "By UniProt entry, the sequences of proteins in these tests, tags left out. Where a name states a change or a piece, a line headed by the entry shows the natural chain unless it says otherwise. Residues count along the entry.", "UniProt Q96RL7": "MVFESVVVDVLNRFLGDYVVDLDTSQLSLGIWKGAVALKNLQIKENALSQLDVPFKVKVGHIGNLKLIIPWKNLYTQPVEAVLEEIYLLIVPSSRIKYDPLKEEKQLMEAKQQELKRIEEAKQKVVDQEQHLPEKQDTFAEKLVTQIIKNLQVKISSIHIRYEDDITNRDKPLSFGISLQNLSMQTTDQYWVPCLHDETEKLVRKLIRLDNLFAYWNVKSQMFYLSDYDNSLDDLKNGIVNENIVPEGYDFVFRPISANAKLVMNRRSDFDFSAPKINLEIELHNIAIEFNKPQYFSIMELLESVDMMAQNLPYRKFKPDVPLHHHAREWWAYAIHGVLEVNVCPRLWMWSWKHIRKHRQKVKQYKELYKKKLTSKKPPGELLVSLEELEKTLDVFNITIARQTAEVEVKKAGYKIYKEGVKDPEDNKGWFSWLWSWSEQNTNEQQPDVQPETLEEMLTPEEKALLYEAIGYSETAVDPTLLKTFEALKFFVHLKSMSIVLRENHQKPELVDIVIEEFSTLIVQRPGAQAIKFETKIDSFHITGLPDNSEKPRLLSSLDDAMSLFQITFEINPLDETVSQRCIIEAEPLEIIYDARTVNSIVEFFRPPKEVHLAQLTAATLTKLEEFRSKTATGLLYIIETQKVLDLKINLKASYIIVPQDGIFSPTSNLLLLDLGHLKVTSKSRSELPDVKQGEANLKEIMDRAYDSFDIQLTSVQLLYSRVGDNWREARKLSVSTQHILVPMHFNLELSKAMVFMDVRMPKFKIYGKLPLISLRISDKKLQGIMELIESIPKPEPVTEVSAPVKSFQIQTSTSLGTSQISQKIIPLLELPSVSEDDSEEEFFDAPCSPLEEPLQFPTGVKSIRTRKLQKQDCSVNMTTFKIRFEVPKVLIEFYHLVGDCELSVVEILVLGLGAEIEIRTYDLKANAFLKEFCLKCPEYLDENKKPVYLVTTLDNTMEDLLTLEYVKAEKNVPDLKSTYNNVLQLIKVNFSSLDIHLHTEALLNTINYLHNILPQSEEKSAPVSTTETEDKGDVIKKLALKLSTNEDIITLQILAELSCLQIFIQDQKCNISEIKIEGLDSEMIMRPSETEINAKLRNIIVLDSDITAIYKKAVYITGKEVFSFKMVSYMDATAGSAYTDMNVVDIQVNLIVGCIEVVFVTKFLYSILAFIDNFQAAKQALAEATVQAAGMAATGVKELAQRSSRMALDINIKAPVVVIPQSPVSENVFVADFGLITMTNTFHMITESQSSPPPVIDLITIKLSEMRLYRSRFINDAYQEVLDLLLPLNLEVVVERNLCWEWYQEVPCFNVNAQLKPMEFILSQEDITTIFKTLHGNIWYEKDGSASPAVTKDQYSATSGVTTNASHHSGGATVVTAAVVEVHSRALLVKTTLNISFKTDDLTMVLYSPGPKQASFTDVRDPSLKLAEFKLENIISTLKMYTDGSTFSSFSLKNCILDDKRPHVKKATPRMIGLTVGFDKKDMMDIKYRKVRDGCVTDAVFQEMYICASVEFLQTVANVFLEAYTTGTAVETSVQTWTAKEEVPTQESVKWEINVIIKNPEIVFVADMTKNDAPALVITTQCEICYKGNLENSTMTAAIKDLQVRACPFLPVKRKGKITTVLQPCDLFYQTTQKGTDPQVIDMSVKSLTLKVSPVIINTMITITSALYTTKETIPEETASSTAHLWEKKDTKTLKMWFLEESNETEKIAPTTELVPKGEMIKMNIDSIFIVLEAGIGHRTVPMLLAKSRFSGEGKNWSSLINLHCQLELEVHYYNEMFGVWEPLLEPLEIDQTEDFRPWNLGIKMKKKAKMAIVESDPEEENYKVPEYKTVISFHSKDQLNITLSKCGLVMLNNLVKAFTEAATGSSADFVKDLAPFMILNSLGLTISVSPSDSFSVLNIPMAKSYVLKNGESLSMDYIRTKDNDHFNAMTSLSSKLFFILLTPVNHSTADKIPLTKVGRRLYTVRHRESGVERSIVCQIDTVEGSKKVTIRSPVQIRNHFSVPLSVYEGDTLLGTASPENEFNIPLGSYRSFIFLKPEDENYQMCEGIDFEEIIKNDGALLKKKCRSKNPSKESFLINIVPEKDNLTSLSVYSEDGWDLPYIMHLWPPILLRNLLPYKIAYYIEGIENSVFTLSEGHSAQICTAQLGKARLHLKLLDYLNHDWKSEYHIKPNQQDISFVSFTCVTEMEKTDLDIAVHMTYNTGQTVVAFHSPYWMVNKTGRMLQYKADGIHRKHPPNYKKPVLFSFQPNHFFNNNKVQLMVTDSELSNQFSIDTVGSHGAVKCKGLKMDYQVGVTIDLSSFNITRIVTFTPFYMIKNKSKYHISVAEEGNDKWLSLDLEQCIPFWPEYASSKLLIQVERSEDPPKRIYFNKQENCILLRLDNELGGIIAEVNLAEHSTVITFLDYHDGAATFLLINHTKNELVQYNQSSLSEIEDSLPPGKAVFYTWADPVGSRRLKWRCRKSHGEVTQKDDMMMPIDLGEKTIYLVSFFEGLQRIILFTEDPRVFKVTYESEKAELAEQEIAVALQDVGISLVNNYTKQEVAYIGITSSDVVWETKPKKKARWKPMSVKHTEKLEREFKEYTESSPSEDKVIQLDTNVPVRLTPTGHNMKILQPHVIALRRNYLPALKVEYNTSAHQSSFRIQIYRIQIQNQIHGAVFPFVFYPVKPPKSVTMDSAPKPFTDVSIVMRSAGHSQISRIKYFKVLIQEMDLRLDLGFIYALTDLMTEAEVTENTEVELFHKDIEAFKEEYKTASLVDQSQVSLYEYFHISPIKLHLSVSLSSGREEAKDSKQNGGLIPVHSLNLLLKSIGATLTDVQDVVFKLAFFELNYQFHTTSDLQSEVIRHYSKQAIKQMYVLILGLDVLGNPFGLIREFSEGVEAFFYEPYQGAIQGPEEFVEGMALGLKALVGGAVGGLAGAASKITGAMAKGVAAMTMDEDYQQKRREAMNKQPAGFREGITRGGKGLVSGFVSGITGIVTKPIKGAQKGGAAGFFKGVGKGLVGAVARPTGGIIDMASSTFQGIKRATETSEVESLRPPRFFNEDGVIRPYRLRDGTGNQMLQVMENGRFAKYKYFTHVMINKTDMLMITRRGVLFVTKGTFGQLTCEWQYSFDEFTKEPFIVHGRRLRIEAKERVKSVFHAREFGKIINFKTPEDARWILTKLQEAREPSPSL", "GFP−VPS13A fragment 1": "residues 1-1372 of Q96RL7", "GFP−VPS13A fragment 3": "residues 1858-2553 of Q96RL7", "GFP−VPS13A fragment 4": "residues 2554-3174 of Q96RL7", "UniProt O95573": "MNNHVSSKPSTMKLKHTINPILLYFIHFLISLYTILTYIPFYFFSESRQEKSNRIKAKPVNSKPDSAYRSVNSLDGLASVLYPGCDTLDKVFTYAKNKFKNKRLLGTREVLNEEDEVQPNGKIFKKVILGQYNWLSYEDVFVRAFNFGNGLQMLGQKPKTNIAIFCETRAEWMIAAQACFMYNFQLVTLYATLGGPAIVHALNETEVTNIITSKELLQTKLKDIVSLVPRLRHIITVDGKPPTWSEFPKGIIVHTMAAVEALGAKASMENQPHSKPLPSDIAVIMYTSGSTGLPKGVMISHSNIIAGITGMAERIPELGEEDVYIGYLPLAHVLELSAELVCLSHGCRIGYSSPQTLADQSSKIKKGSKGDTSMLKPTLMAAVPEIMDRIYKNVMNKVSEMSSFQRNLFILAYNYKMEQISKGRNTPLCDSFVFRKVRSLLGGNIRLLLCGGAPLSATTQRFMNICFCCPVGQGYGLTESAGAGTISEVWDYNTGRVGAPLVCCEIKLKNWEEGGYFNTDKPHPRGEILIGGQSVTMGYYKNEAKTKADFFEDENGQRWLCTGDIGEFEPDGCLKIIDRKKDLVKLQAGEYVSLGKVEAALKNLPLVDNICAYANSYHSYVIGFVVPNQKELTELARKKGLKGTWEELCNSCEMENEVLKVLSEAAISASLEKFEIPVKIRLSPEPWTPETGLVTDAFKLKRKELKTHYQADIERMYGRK"}, "source": "paper PMC10911177", "about": "“Exploring the ATG9A interactome uncovers interaction with VPS13A” (Journal of cell science, 2024)", "molecules": {"B1": {"name": "ATG9A (endogenous) (protein, UniProt Q7Z3C6 1-839)", "chain": "MAQFDTEYQRLEASYSDSPPGEEDLLVHVAEGSKSPWHHIENLDLFFSRVYNLHQKNGFTCMLIGEIFELMQFLFVVAFTTFLVSCVDYDILFANKMVNHSLHPTEPVKVTLPDAFLPAQVCSARIQENGSLITILVIAGVFWIHRLIKFIYNICCYWEIHSFYLHALRIPMSALPYCTWQEVQARIVQTQKEHQICIHKRELTELDIYHRILRFQNYMVALVNKSLLPLRFRLPGLGEAVFFTRGLKYNFELILFWGPGSLFLNEWSLKAEYKRGGQRLELAQRLSNRILWIGIANFLLCPLILIWQILYAFFSYAEVLKREPGALGARCWSLYGRCYLRHFNELEHELQSRLNRGYKPASKYMNCFLSPLLTLLAKNGAFFAGSILAVLIALTIYDEDVLAVEHVLTTVTLLGVTVTVCRSFIPDQHMVFCPEQLLRVILAHIHYMPDHWQGNAHRSQTRDEFAQLFQYKAVFILEELLSPIVTPLILIFCLRPRALEIIDFFRNFTVEVVGVGDTCSFAQMDVRQHGHPQWLSAGQTEASVYQQAEDGKTELSLMHFAITNPGWQPPRESTAFLGFLKEQVQRDGAAASLAQGGLLPENALFTSIQSLQSESEPLSLIANVVAGSSCRGPPLPRDLQGSRHRAEVASALRSFSPLQPGQAPTGRAHSTMTGSGVDARTASSGSSVWEGQLQSLVLSEYASTEMSLHALYMHQLHKQQAQAEPERHVWHRRESDESGESAPDEGGEGARAPQSIPRSASYPCAAPRPGAPETTALHGGFQRRYGGITDPGTVPRVPSHFSRLPLGGWAEDGQSASRHPEPVPEEGSEDELPPQVHKV"}, "B2": {"name": "3×Flag−ATG9A (protein, UniProt Q7Z3C6 1-839)", "chain": "B1 chain"}}, "key": {"[1]": {"biological_target": "T1, ATG9A (endogenous) (human (endogenous in HEK293A)) (UniProt Q7Z3C6)", "T1 sequence": "B1 chain", "experiment": "co-IP; endogenous ATG9A immunoprecipitated with anti-ATG9A antibodies on protein A Dynabeads; immunoblot for endogenous ACSL3"}, "GFP−ATG9A C-Term": {"biological_target": "T2, GFP−ATG9A C-Term (UniProt Q7Z3C6)", "T2 sequence": "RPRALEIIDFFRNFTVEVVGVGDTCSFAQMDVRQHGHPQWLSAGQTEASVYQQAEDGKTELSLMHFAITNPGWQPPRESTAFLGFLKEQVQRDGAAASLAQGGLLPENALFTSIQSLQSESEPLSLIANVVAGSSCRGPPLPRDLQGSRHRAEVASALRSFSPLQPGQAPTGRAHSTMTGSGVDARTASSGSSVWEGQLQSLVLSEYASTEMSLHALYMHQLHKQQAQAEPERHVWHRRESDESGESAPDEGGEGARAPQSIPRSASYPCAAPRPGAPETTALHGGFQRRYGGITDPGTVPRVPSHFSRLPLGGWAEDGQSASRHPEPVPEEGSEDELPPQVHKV", "experiment": "co-IP; cells expressing tagged proteins; GFP-TRAP or RFP-Trap beads overnight at 4°C, four washes with TNTE or LMNG buffer; immunoblot"}, "GFP−ATG9A ΔC": {"biological_target": "T3, GFP−ATG9A ΔC (UniProt Q7Z3C6)", "T3 sequence": "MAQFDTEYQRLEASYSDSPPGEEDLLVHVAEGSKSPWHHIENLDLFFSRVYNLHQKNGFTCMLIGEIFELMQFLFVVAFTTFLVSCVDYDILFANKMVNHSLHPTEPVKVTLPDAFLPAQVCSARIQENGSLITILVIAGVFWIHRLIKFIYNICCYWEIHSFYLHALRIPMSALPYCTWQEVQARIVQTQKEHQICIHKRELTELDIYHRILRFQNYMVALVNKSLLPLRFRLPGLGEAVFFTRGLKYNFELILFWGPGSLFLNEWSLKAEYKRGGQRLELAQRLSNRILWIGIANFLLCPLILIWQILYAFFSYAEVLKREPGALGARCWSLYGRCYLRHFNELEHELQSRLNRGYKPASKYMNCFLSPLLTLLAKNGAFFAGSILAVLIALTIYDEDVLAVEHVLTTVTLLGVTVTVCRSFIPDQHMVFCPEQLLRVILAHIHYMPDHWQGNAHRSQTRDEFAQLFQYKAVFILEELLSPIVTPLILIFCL", "experiment": "co-IP; cells expressing tagged proteins; GFP-TRAP or RFP-Trap beads overnight at 4°C, four washes with TNTE or LMNG buffer; immunoblot"}, "GFP−ATG9A FL": {"biological_target": "T4, GFP−ATG9A FL (UniProt Q7Z3C6)", "T4 sequence": "B1 chain", "experiment": "co-IP; cells expressing tagged proteins; GFP-TRAP or RFP-Trap beads overnight at 4°C, four washes with TNTE or LMNG buffer; immunoblot"}, "VPS13AμmCherry (human)": {"biological_target": "VPS13AμmCherry (human) (UniProt Q96RL7)", "experiment": "co-IP; cells expressing tagged proteins; GFP-TRAP or RFP-Trap beads overnight at 4°C, four washes with TNTE or LMNG buffer; immunoblot"}, "VPS13CμClover": {"biological_target": "VPS13CμClover (UniProt Q709C8)", "experiment": "co-IP; cells expressing tagged proteins; GFP-TRAP or RFP-Trap beads overnight at 4°C, four washes with TNTE or LMNG buffer; immunoblot"}, "[2]": {"biological_target": "GFP−VPS13A fragment 4 (human) (UniProt Q96RL7)", "experiment": "co-IP; cells expressing tagged proteins; GFP-TRAP or RFP-Trap beads overnight at 4°C, four washes with TNTE or LMNG buffer; immunoblot"}, "[3]": {"biological_target": "GFP−VPS13A fragment 3 (human) (UniProt Q96RL7)", "experiment": "co-IP; cells expressing tagged proteins; GFP-TRAP or RFP-Trap beads overnight at 4°C, four washes with TNTE or LMNG buffer; immunoblot"}, "[4]": {"biological_target": "GFP−VPS13A fragment 1 (human) (UniProt Q96RL7)", "experiment": "co-IP; cells expressing tagged proteins; GFP-TRAP or RFP-Trap beads overnight at 4°C, four washes with TNTE or LMNG buffer; immunoblot"}}, "note": "Results are given in words; binding and its absence hold for the method and conditions named. In cells and extracts the contact can be indirect. Some binding calls cover weakened binding; strength is not graded here. For part of these data: Sequences can lack the tags named with a protein."}
{"molecule": "ACSL3 (endogenous) (from UniProt O95573 1-720)", "values": [{"measurement": "binding", "setting": "[1]", "result": "binds"}]}
{"molecule": "3×Flag−VPS13A full length (from UniProt Q96RL7 1-3174)", "values": [{"measurement": "binding", "setting": "GFP−ATG9A C-Term", "result": "binds"}, {"measurement": "binding", "setting": "GFP−ATG9A ΔC", "result": "binds"}, {"measurement": "binding", "setting": "GFP−ATG9A FL", "result": "binds"}]}
{"molecule": "B1", "values": [{"measurement": "binding", "setting": "VPS13AμmCherry (human)", "result": "binds"}, {"measurement": "binding", "setting": "VPS13CμClover", "result": "binds"}]}
{"molecule": "B2", "values": [{"measurement": "binding", "setting": "[2]", "result": "binds"}, {"measurement": "binding", "setting": "[3]", "result": "no binding"}, {"measurement": "binding", "setting": "[4]", "result": "binds"}]}
